# In all, about 310,000 compounds went through this assay and about 14,000 (4.5%) showed an effect of 50% or more. The effect is printed as a negative number. The list shows a part of the results.
# Biological target: human ether-à-go-go-related gene (hERG) potassium channel (human, UniProt Q12809)
# Test: primary screen, population patch clamp on CHO cells stably expressing hERG
# 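Note: peak tail current of the secondary pulse compared with the same well before compound.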
# Sequence of human ether-à-go-go-related gene (hERG) potassium channel (Q12809 whole entry, looked up): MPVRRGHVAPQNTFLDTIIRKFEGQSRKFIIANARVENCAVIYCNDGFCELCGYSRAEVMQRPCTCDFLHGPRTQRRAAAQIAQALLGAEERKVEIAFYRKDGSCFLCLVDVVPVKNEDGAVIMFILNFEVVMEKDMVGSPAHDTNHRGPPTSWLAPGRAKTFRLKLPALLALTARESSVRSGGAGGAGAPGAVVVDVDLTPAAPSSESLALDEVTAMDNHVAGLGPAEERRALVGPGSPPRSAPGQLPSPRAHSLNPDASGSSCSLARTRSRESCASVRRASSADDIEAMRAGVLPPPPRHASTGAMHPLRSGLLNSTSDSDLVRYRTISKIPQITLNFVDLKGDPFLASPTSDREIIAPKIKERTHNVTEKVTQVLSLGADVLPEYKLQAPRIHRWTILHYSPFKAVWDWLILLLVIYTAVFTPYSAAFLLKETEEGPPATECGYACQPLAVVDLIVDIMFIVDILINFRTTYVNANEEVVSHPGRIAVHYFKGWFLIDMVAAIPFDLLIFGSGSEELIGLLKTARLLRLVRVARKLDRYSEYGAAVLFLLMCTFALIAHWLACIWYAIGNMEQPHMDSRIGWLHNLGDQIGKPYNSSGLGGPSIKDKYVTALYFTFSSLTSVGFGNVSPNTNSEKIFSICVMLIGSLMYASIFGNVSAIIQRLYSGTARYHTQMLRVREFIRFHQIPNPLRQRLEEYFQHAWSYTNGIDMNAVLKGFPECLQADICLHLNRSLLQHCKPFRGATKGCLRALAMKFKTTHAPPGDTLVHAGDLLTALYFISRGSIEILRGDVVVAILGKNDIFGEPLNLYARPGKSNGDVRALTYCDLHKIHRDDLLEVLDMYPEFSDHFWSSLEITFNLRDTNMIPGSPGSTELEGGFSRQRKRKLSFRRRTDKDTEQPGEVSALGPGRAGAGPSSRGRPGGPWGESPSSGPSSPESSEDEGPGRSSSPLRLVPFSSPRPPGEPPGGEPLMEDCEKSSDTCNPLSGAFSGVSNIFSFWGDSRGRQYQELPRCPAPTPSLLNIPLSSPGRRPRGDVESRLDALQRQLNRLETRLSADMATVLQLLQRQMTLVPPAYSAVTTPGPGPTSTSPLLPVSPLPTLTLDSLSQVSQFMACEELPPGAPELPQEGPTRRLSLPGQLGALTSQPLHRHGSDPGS
row,SMILES,"hERG current change (%, negative = inhibition) at 10uM [%]"
1,NC(=O)c1ccc(-n2nnnc2Oc2ccccc2C(=O)N2CCOCC2)cc1,15.8
2,Cc1ccccc1-n1c(=O)n(CCc2ccccc2)c(=O)c2[nH]cnc21,12.8
3,Cl.O.O=C1CC(=C(c2ccccc2)c2ccccc2)C(=O)N1CCN1CCN(c2cccc(Cl)c2)CC1,-5.67
4,O=C1C2C3c4ccccc4C(c4ccccc43)C2C(=O)N1c1cccnc1 (stereo not drawn),-5
5,Cn1c(=O)c2cc(S(=O)(=O)Nc3cccc(F)c3)ccc2n(C)c1=O,-1.69
6,CCOC(=O)c1ccc2ncc(C(=O)OCC)c(NCCN3CCOCC3)c2c1,-48.5
7,Nc1ccc(C(=O)N2CCCC2)cc1,5.85
8,COc1ccc(NC(=O)NC2CCN(C(C)C)CC2)c(OC)c1,-8.9
9,O=C(NCc1ccccc1)C1=C[C@H](c2ccccc2)C[C@H](OCc2ccc(CO)cc2)O1,-11.2
10,Cc1cc(NC(=O)c2ccccc2)n(C)n1,15.1
11,CC(Oc1ccc(Cl)cc1Cl)C(=O)NCCCN(C)C (stereo not drawn),-6.15
12,O=c1oc2ccccc2c(NC(c2ccccc2)c2ccccc2)c1[N+](=O)[O-],3.46
13,CCN1CCN(C2=NC(=O)/C(=C/c3ccc(C)o3)S2)CC1,-20.9
14,CCC(C)N(C(=O)Cn1cnc2c1c(=O)n(C)c(=O)n2C)C1CCS(=O)(=O)C1 (stereo not drawn),17.5
15,O=[N+]([O-])c1ccc(Cl)c(/C=N/N2CCN(Cc3ccc(Cl)cc3)CC2)c1,4.9
16,Cc1nnc(NCCc2ccccc2)c2ccccc12,-18.1
17,C=CCOc1c(Br)cc(CNn2c(C)n[nH]c2=S)cc1OC,13
18,CC(C(=O)NCc1cccnc1)c1ccc([N+](=O)[O-])cc1 (stereo not drawn),-42.5
19,Cc1ccccc1S(=O)(=O)Cc1ccc(C(=O)NCCCN2CCC(C)CC2)o1,-36.2
20,CCOC(=O)c1cnc(SCC(=O)NNC(=O)c2ccco2)nc1N,18.3
21,COc1ccc(OCCNC(=S)Nc2cccc3ccccc23)cc1,3.79

row,SMILES,"hERG current change (%, negative = inhibition) at 10uM [%]"
1,Cc1ccc(NC(=O)c2nnn(CC(=O)Nc3ccccc3)c2N)cc1C,-1.34
2,CN(Cc1c(C(=O)N/N=C/c2cccc(Cl)c2)nnn1-c1nonc1N)c1ccccc1,-4.34
3,O=C(/C=C/c1ccccc1)N1CCN(c2ccc([N+](=O)[O-])c(N3CCOCC3)c2)CC1,-54.3
4,COC(=O)c1c(NC(=O)c2nc3nc(C)cc(C(F)F)n3n2)sc2c1CCC2,5.97
5,CC1(C)CC(=O)C2=C(C1)c1c(ccc3ccccc13)NC2c1ccc(C(=O)O)cc1 (stereo not drawn),36.6
6,Cc1ccc2c(c1)N(CC(=O)NCC1CCCO1)C(=O)CO2 (stereo not drawn),12
7,COc1ccc(NC(=S)N2CCc3ccccc3C2)cc1OC,9.77
8,CC1=C(C#N)C(Nc2ccc(C)cn2)(C(F)(F)F)C(=O)N1 (stereo not drawn),-15.2
9,O=C(CCC(=O)N1CCOc2ccccc21)NC1CCCCCC1,-20.8
10,Cc1cc(=O)oc2c3c(cc(OCC(=O)NCc4ccco4)c12)OC(C)(C)CC3,-13.5
11,CCOC(=O)C1CCN(c2ncnc3c2cnn3-c2ccc(OC)cc2)CC1,-16.2
12,CC1Oc2ccccc2N(CC(=O)NCCCN2CCOCC2)C1=O (stereo not drawn),13
13,O=C(c1ccc(Cn2c(=O)[nH]c3ccsc3c2=O)cc1)N1CCN(c2ccccc2)CC1,7.23
14,CCc1c(C)sc(NC(=O)c2cc(C)on2)c1C#N,6.34
15,C[C@@H](C(=O)NCC1CCCO1)N1C(=O)N2CCc3c([nH]c4ccccc34)[C@@]2(C)C1=O (stereo partly drawn),-17.2
16,CN(C)S(=O)(=O)c1cccc(NC(=O)COC(=O)CNC(=O)c2cccc([N+](=O)[O-])c2)c1,-39.6
17,CN1CCN(CCCNC(=O)CN2C(=O)COc3ccccc32)CC1,-5.97
18,COc1cc(/C=N/NC(=O)c2c(-c3ccccc3)noc2C)ccc1O,-10.9
19,COc1ccc(C(=O)NCCc2ccccc2F)cc1OC1CCN(C(C)=O)CC1,4.19
20,Cc1nnc(SCC(=O)NC2CC2)s1,19.5
21,O=C(CNC(=O)c1ccco1)Nc1ccc(F)cc1,29.2

row,SMILES,"hERG current change (%, negative = inhibition) at 10uM [%]"
1,CC1CCN(C(=O)CCN2C(=O)/C(=C/c3cccs3)SC2=S)CC1,2.87
2,CC(CNCC1CCCO1)COc1cccc2ccccc12 (stereo not drawn),-16.7
3,COc1ccccc1C(=O)N/C(=C\c1cn(S(=O)(=O)N(C)C)c2ccccc12)C(=O)NCCCN1CCOCC1,-7.58
4,Cc1ccc(S(=O)(=O)c2nc(Nc3ccccc3C#N)sc2Cl)cc1,5.23
5,Cc1cc(C)cc(NC(=O)Nc2cc(-c3ccccc3)nn2C)c1,18.1
6,CC(=O)c1cccc(NC(=O)C23CC4CC(C2)CC(n2cncn2)(C4)C3)c1,5.88
7,CC(=O)N1c2ccc(S(=O)(=O)NC(CC(=O)O)c3ccc(Br)cc3)cc2CC1C (stereo not drawn),22.3
8,CCOc1ccc(NC(=O)CN(C)C(=O)c2c(-c3ccccc3Cl)noc2C)cc1OCC,-7.11
9,CC(=O)c1cccc(N(C(=O)CNC(=O)c2ccco2)C(C(=O)NC2CCCC2)c2ccco2)c1 (stereo not drawn),2.79
10,COc1ccc(S(=O)(=O)Nc2ccc3oc(C)c(C(C)=O)c3c2)cc1,12
11,COc1ccc(-c2c(O)c(C#N)c(-c3ccccc3)n(-c3ccc(OC)cc3)c2=O)cc1,9.95
12,O=C1Nc2ccc([N+](=O)[O-])cc2OC1CCN1CCN(Cc2ccc3c(c2)OCO3)CC1 (stereo not drawn),-22.7
13,COc1ccc(C2N(c3ccccc3)C(=S)N3CCCN23)cc1 (stereo not drawn),8.17
14,CN(C)c1oc(-c2ccccc2)nc1C#N,-6.61
15,CCOc1cc(C2NN=C(c3ccccc3)S2)ccc1OCc1ccccc1Cl (stereo not drawn),16.1
16,O=C(CN(C(=O)CCC(=O)Nc1ccccn1)C1CCCC1)NCc1ccccc1,5.2
17,C[C@@H](NC(=O)c1nc[nH]c1C(=O)N[C@@H](Cc1ccccc1)C(=O)OC(C)(C)C)c1ccccc1,12.3
18,O=C1OC(=O)C2C1[C@@H]1CC[C@H]2O1 (stereo partly drawn),4.05
19,COc1ccc(/C=C(/NC(=O)c2ccccc2)C(=O)N2CCC(C)CC2)cc1,-38.4
20,COCCN1C(=O)c2oc3c(C)cc(C)cc3c(=O)c2C1c1cccc(O)c1 (stereo not drawn),-3.77
21,Cc1c(CCOC(=O)c2ccc(N3CCOCC3)c([N+](=O)[O-])c2)sc[n+]1CC#N.[Cl-],-33.3

row,SMILES,"hERG current change (%, negative = inhibition) at 10uM [%]"
1,COc1cccc(NC(=O)c2ccc(Cn3cc([N+](=O)[O-])cn3)o2)c1,-45.8
2,CCOc1cccc(/C=C/c2ccc3ccccc3n2)c1OC(C)=O,16.3
3,COc1ccc(NC(=O)N2CCCC2C(=O)Nc2ccc(C)cc2C)cc1 (stereo not drawn),0.743
4,CN(C(=O)Cn1nnc2ccccc2c1=O)C1CCCCC1,-8.8
5,Cc1cc(C[n+]2cc(Br)ccc2N)c2ncccc2c1.[Br-],-68
6,c1ccc(Cn2nnnc2CN2CCOCC2)cc1,-0.538
7,Cc1cccc(C(=O)N2CCC(=O)N(C(COCc3cccc(Cl)c3)Cc3ccccc3)CC2)c1 (stereo not drawn),-11.6
8,COc1ccc(S(=O)(=O)n2nc(OC(=O)c3ccccc3Br)cc2N)cc1,0.611
9,O=C(Nc1ccc(NC(=O)c2ccccn2)cc1)C(=O)Nc1ccc2c(c1)OCCO2,18.8
10,COc1ccc(-c2ccc3oc(-c4ccc(OC)cc4)c(C#CCCO)c3c2)cc1,9.38
11,COc1ccc(C(=O)Nc2ccccc2C(=O)NC(Cc2ccc(O)cc2)C(=O)NNC(=O)c2ccc(C)cc2)cc1 (stereo not drawn),4.45
12,CC(=O)N[C@@H](Cc1c[nH]c2ccccc12)C(=O)OCc1ccc(C#N)cc1,-22.8
13,COc1ccccc1N1CCN(C(=O)c2noc(C(C)C)c2[N+](=O)[O-])CC1,13
14,CC(=O)c1ccc(N2CCN(S(=O)(=O)c3ccc4ccccc4c3)CC2)cc1,3.28
15,O=C1ON=C(c2cccc([N+](=O)[O-])c2)/C1=C/c1ccc(O)cc1,21.9
16,Cn1c(COc2cccc3cccnc23)nnc1SCC(=O)O,9.13
17,COc1cc(NS(=O)(=O)c2c(C)oc3c(F)c(F)c(F)c(F)c23)cc(OC)c1OC,-26.7
18,O=C(Nc1nnc(SCc2ccccc2F)s1)C1=COCCO1,-30.6
19,COc1ccc(NS(=O)(=O)c2ccc(NS(=O)(=O)c3ccc(SC)cc3)cc2)c(OC)c1,-6.56
20,CCCc1cc(=O)[nH]c(/N=C(/NC(=O)C(C)N2C(=O)c3ccccc3C2=O)Nc2ccccc2)n1 (stereo not drawn),13.5
21,COc1ccccc1C1/C(=C(/O)c2ccc(OC(C)C)cc2)C(=O)C(=O)N1c1cc(C)on1 (stereo not drawn),-1.75

# From paper PMC4336329 (PLoS ONE, 2015)
